About 14,000 (4.5%) of roughly 310,000 compounds showed an effect of 50% or more. Effects have a minus sign here. The list shows a part of the results.
molecular target: human ether-à-go-go-related gene (hERG) potassium channel (human, UniProt Q12809); assay: primary screen, population patch clamp on CHO cells stably expressing hERG
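Also: peak tail current of the secondary pulse compared with the same well before compound.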

human ether-à-go-go-related gene (hERG) potassium channel, sequence (Q12809 whole entry, looked up): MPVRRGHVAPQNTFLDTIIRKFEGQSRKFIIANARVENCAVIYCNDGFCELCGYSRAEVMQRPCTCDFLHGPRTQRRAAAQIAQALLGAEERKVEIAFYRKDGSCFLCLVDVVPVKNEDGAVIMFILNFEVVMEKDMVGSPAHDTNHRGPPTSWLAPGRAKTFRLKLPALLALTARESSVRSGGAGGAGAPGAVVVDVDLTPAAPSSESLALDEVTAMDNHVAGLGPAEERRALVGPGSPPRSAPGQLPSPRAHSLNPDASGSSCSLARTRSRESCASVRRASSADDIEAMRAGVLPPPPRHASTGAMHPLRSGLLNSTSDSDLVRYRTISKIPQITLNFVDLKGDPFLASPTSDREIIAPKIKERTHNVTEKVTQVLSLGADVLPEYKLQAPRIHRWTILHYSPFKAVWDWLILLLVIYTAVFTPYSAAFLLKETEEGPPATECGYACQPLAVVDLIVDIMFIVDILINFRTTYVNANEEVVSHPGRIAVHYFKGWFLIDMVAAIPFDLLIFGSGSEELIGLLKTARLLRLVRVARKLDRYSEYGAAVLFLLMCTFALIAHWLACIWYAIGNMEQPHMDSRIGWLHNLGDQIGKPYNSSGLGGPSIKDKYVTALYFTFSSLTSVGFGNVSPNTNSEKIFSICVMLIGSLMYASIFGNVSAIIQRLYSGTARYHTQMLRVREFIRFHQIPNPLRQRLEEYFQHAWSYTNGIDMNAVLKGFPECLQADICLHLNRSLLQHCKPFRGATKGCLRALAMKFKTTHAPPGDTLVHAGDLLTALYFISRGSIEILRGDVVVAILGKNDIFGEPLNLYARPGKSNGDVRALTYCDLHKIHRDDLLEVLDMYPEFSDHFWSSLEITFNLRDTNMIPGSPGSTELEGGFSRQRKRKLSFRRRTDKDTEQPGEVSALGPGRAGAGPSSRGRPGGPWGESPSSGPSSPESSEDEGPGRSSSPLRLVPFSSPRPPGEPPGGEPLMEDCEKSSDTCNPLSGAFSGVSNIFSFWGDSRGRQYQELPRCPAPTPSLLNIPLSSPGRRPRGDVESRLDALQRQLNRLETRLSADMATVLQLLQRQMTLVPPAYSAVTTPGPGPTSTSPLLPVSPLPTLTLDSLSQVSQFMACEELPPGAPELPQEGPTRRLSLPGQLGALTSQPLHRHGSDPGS

| Structure (SMILES) | hERG current change (%, negative = inhibition) at 10uM [%] |
| --- | --- |
| COc1ccc(/C=C/CN2CCCC(CCC(=O)NCc3ccc(F)c(F)c3)C2)cc1 (stereo not shown) | -72.8 |
| CC(=O)c1c(C)[nH]c(C(=O)COc2ccc3ccc(=O)oc3c2)c1C | -10.6 |
| C=CCn1c(/N=C/c2ccc3c(c2)OCO3)nc2ccccc21 | -7.49 |
| CCOC(=O)C1=C(CP(=O)(c2ccccc2)c2ccccc2)NC(=O)NC1c1ccc(Cl)cc1 (stereo not shown) | 0.987 |
| Cc1noc(/C=C/N(C)C)c1S(=O)(=O)N1CCCC(C(=O)NCc2ccccc2Cl)C1 (stereo not shown) | 5.27 |
| O=C(C1CCN(Cc2cccs2)CC1)N1CCN(Cc2ccc3c(c2)OCO3)CC1.O=C(O)C(=O)O | -14.5 |
| Cc1ccccc1NC(=O)N1CCCC(c2nc(-c3ccc(F)cc3)no2)C1 (stereo not shown) | -26.2 |
| O=C(Cn1cnc2sc3c(c2c1=O)CCCC3)NCC(=O)Nc1ccc(F)cc1F | 5.23 |
| CCN(c1cccc(C)c1)c1ncnc2nc[nH]c12 | 9.59 |
| O=C1NC(c2ccccc2)=C(c2nc3ccccc3s2)C(c2ccc(O)cc2)N1 (stereo not shown) | 5 |
| O=C(Nc1ccccc1F)c1ccc(CN2CCc3ccccc3C2)cc1 | 13.7 |
| COc1cccc(NC(=O)CCC2CCN(C(=O)c3sccc3C)CC2)c1 | 4.54 |
| c1ccc(Cc2nnc(-c3ccccc3)o2)cc1 | -2.33 |
| CCOC(=O)c1c[nH]c2ccc3ccccc3c2c1=O | 13 |
| CCCCOC(=O)c1ccc(NC(=O)CN2C(=O)NC3(CCCCCC3)C2=O)cc1 | -12.5 |
| COc1cc2cc(CCCOC(=O)c3cccc(Br)c3)oc(=O)c2cc1OC | -2.2 |
| CCOc1ccccc1CNC(=O)CCN1C(=O)COc2ccccc21 | -7.73 |
| COc1cccc(CC(NC(C)=O)C(=O)NC2CCN(S(=O)(=O)c3ccc(F)cc3)CC2)c1OC (stereo not shown) | 10.5 |
| COc1cc(C)c(C(C)C)cc1S(=O)(=O)NC1CC(C)(C)NC(C)(C)C1 | 10.8 |
| CC(OC(=O)C1CC1)C(=O)Nc1ncc(Cl)cc1Cl (stereo not shown) | 18.1 |
| CCCCCn1c(=O)[nH]c2cc(C(=O)NCCCN3CCC(C)CC3)ccc2c1=O | -44.4 |
| CN(C)c1ccc(NC(=O)Oc2ccccc2)cc1 | 2.82 |

| Structure (SMILES) | hERG current change (%, negative = inhibition) at 10uM [%] |
| --- | --- |
| CCCCn1c(=O)[nH]c(=O)c2c1nc(-c1ccc([N+](=O)[O-])cc1)n2CC | -19.2 |
| Cn1c(=O)n(C)c2cc(/C=N/N=C3/NC(=O)C(CC(=O)O)S3)ccc21 (stereo not shown) | 16 |
| O=[N+]([O-])c1cnccc1Nc1ccc(Cl)cc1 | -41 |
| O=C(Oc1cc2oc(=O)c3c(c2cc1Cl)CCCC3)c1ccco1 | 7.8 |
| CCCCC1CC1C(=O)Nc1ncc2c(n1)CC(C)(C)CC2=O (stereo not shown) | -57.5 |
| COc1cc(CNc2nc3ccccc3n2C)cc(OC)c1OC | -16.8 |
| Cl.Oc1ccc(Cl)cc1CNCc1ccc(F)c(F)c1 | 2.87 |
| O=C(CC1C(=O)NCCN1Cc1cccc(F)c1F)NC1CCCCCC1 (stereo not shown) | -10.6 |
| CCCc1ccc(S(=O)(=O)N2CCN(C(C)C(=O)NCc3ccc(OC)cc3)CC2)cc1 (stereo not shown) | -57.4 |
| O=C(NNC(=S)Nc1ccc(Cl)cc1Cl)c1ccncc1 | 23 |
| Cc1cccc(C)c1NC(=O)CN(C)C(=O)CC1OC(=O)c2ccccc21 (stereo not shown) | 10.8 |
| COc1ccc(CCNC(=O)CCS(=O)(=O)c2ccc3nc(C)sc3c2)cc1OC | -13.1 |
| CCCNS(=O)(=O)c1ccc(CCC(=O)N2CCN(c3ccc(F)cc3)CC2)cc1 | -43.7 |
| O=C(Nc1cccc(NC(=O)c2cccnc2Cl)c1)c1ccco1 | 11.5 |
| COc1ccc(N2C(=O)c3ccccc3NC2c2ccccc2O)cc1 (stereo not shown) | 15.1 |
| Cc1n[nH]c(C)c1S(=O)(=O)N(CC(=O)Nc1ccc2c(c1)OCCO2)c1ccc(C(C)C)cc1 | 6.48 |
| CC1(C)Cc2nc(N)c(C(=O)NCCO)cc2CO1 | -2.36 |
| O=C(CSC1=Nc2ccccc2C2CC=NN12)Nc1ccc(F)c(F)c1F (stereo not shown) | -16.1 |
| O=C(Nc1ccc(NC(=O)c2ccc([N+](=O)[O-])cc2[N+](=O)[O-])cc1)c1ccco1 | 13.8 |
| COc1cccc(/C=N/NC(=O)c2ccccc2N(Cc2ccccc2)S(=O)(=O)c2ccccc2)c1OC | -6.05 |
| Nc1nnc(SCC(=O)NCCOc2ccccc2)s1 | 4.23 |
| COc1ccc(OC)c(C2=Nn3c(nnc3C3CCCCC3)SC2)c1 | -39.4 |

| Structure (SMILES) | hERG current change (%, negative = inhibition) at 10uM [%] |
| --- | --- |
| O=c1c2oc3ccccc3c2ncn1Cc1ccccc1F | -21.4 |
| CCOC(=O)CSc1nc(N)c(C#N)c(CC(C)C)c1C#N | -9.92 |
| O=C(COC(=O)c1ccccc1O)Nc1ncc(Cl)cc1Cl | 3.51 |
| Cc1cc(NC(=O)CSc2nnc(-c3ccco3)n2Cc2ccco2)no1 | -24.7 |
| CC12CC3CC(C)(C1)CC(NCc1ccncc1)(C3)C2.Cl | -58.7 |
| C/C(=C1/SC(N2CC(C)OC(C)C2)=NC1=O)c1ccccc1 (stereo not shown) | -22.4 |
| O=C(CSc1nnc(Cc2ccccc2)n1C1CCCCC1)N1CCOCC1 | -21.1 |
| COc1ccc(NC(=O)c2oc3ccccc3c2NC(=O)C2CC2)cc1 | -47.4 |
| CCC(=O)Nc1ccc(C(=O)N/N=C/c2cccnc2)cc1 | 3.76 |
| CCC(OC(=O)c1cc2sccc2n1C)C(=O)NCC1CCCO1 (stereo not shown) | 9.11 |
| COc1ccc(/C=N/Nc2cc(C)nc3c(C)cccc23)cc1 | -57.5 |
| CCOC(=O)C(NC(=O)CC)(Nc1ccccc1OC)C(F)(F)F (stereo not shown) | 10 |
| COc1cc(C)nc(N2CCCC(C(=O)Nc3ccccc3Br)C2)n1 (stereo not shown) | 8.77 |
| COc1cccc(CNC(=O)CCCn2nc(C)n3c(cc4sccc43)c2=O)c1 | -7.03 |
| Cc1cccc(-n2c(O)c(C=Nc3ccc(O)cc3)c3ccccc3c2=O)n1 | -2.73 |
| O=c1cc(C(F)(F)F)oc2c1ccc1ccccc12 | 9.92 |
| CC(C)C(c1nnnn1Cc1ccc(F)cc1)N1CCN(C2CCCC2)CC1 (stereo not shown) | -38.2 |
| CCc1ccc(NC(=O)NCCN2CCc3ccccc3C2)cc1 | -54.7 |
| COc1ccc(NC(=O)CCNS(=O)(=O)c2cc(Br)ccc2Br)cc1S(N)(=O)=O | 8.36 |
| COc1ccccc1-n1c(CCC(=O)O)ccc1-c1ccccc1 | -12.9 |
| CCOC(=O)c1ccc(N2C(=O)CC(N3CC(C)OC(C)C3)C2=O)cc1 (stereo not shown) | 18 |
| COc1cc(C(CC(=O)O)n2cnnn2)ccc1OC(C)C (stereo not shown) | 8.19 |

| Structure (SMILES) | hERG current change (%, negative = inhibition) at 10uM [%] |
| --- | --- |
| CCCCOc1ccc(OC(=O)Nc2cc(Cl)ccc2OC)cc1 | 19.3 |
| CC(C)CNC(=O)C(=O)Nc1cc2c3c(c1)CCC(=O)N3CCC2 | 2.89 |
| CCCC/C=C/[C@H](c1ccccc1)[C@H](CO)Cc1cccnc1 | -7.78 |
| CCCCOc1ccc(/C=N/NC(=O)c2nnn(-c3nonc3N)c2C)cc1 | 12.1 |
| NS(=O)(=O)c1ccc(NC(=O)COc2ccc(Cl)cc2)cc1 | 1.02 |
| CCN(CC)CCCN(Cc1cc2cc3c(cc2[nH]c1=O)OCCO3)C(=O)Nc1ccc(F)cc1 | -61.6 |
| CCOC(=O)C1=C(C)NC2=C(C(=O)CCC2)C1c1cccs1 (stereo not shown) | -1.2 |
| CCCCC(=O)/C=C/n1c(=S)oc2ccccc21 | 17.9 |
| Cc1ccc(CNC(=O)CCCn2nc(C)n3ccnc3c2=O)cc1 | 17.1 |
| COc1cc(NC(=O)C2CC(c3cccc(Br)c3)=NO2)cc(OC)c1OC (stereo not shown) | -11.6 |
| CC1CCC(NC(=O)CN(C)S(=O)(=O)c2cnc[nH]2)CC1 (stereo not shown) | 12.9 |
| Cc1cc(C)c(S(=O)(=O)N2CCCCC2)c(C)c1N(C)S(=O)(=O)c1ccccc1 | -5.93 |
| COCCn1c(C)cc(C(=O)COC(=O)CNC(=O)c2ccccc2)c1C | 15.8 |
| COc1ccc(-c2nnc(NC(=O)C(C)C)s2)c(OC)c1 | 12.3 |
| Cc1cc(C)n(-c2nc3ccccc3nc2N2CCN(C(=O)c3ccccc3)CC2)n1 | -14.7 |
| O=[N+]([O-])c1ccc(-c2cn3c(n2)SCC3)cc1 | -7.01 |
| COc1cccc(NC(=O)c2ccc(S(=O)(=O)N3CCCC3)cc2)c1 | 6.79 |
| Cc1nc(-c2ccc(C(=O)Nc3cc(S(N)(=O)=O)ccc3C)cc2)cs1 | 1.21 |
| CC(Sc1ccccc1)C(=O)N1CCN(S(=O)(=O)c2ccccc2C(F)(F)F)CC1 (stereo not shown) | -24.1 |
| Cc1cc2nc(-c3ccc[nH]c3=O)n(Cc3ccccc3F)c2cc1C | 13.9 |
| CC(C)CC1NC(=O)N(CC(=O)NC2CCCc3ccccc32)C1=O (stereo not shown) | 5.89 |
| COc1ccc(-n2c(C)cc(/C=C3\C(=O)NN(c4ccccc4)C3=O)c2C)cc1 | 10.6 |

From article PMC4336329 (PLoS ONE, 2015)
